The values that follow come from PubChem BioAssay AID1347073 (National Center for Advancing Translational Sciences (NCATS), 2019).

In all, about 45,000 compounds went through this assay and about 200 (0.44%) were called active. About 7% were inconclusive and are not listed. Calls come from the whole dose curve; as a rule, active = well fitted activation curve with a large enough effect; inconclusive = small, poorly fitted or top-dose-only effect; inactive = no such curve, though single readings can be large or run the other way. The list shows a part of the results.

This test can be described thus: qHTS of TDP-43 Inhibitors: NCGC Sytravon Library Screen. Note: 0% is about no effect; nearly all actives have a fitted effect of over 55% in size. The conditions noted are these: yeast TDP-43 toxicity rescue, BacTiter-Glo growth, 24 h; series mostly up to 46.1 µM; growth rescue (activation): at the top concentration. The gist of the method: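 TDP-43-expressing yeast, pregrown in raffinose, seeded at OD600 0.02 in galactose medium with compound for 24 hr at 30 deg C. Growth read by BacTiter-Glo luminescence, so rescue of toxicity appears as activation.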
On the technique in general: qHTS replaces the single test concentration by a dilution series.
As to `O=C(CSc1nnc(-c2ccccc2O)n1-c1ccccc1)Nc1cccc(C(=O)O)c1`, the “growth rescue (activation)” value is inactive: 12.7%.
Under `Cc1ccc(CN2CCN(/N=C/c3cc(Br)cc(Br)c3O)CC2)c(C)c1` stands inactive: -13.4%; under `N#CC1=C(N)Oc2n[nH]c(-c3ccc(F)cc3)c2C1c1ccncc1` (stereo not given), inactive: 16.9%; under `Cn1c(O)c(N=NC(=O)c2ccco2)c2ccccc21`, inactive: -9.31%.
Under `COc1cc(C(=O)OCC(=O)Nc2ccc(C)cc2)cc(OC)c1OC` stands inactive: 5.84%; under `CCc1nc2ccccc2n1Cc1ccccc1F`, inactive: 3.91%; under `CN(CC(=O)Nc1ccc(F)cc1)CC(=O)Nc1ccc(Cl)c(S(=O)(=O)N2CCOCC2)c1`, inactive: 22.9%.
Consider `Cc1c(C(c2cc(O)ccc2O)c2c(C)n(C)n(-c3ccccc3)c2=O)c(=O)n(-c2ccccc2)n1C`, for which the “growth rescue (activation)” value was inactive: -11.7%.
Under `Cc1c(Cl)cccc1NC(=O)CCN1C(=O)C2CC=CCC2C1=O` (stereo not given) stands inactive: 16.9%.
The figure for `O=C(c1ccc(S(=O)(=O)N2CCOCC2)cc1)N(c1cccc(Cl)c1)C1C=CS(=O)(=O)C1` (stereo not given) is inactive: 9.06%; for `CCOC(=O)N1CCN(C(=O)C(CC)n2nc(C)c3sc4ccccc4c3c2=O)CC1` (stereo not given) it is inactive: -3.01%; for `O=C(Nc1ccc(N2CCN(C(=O)c3ccc(Cl)cc3)CC2)cc1)c1cccnc1` it is inactive: 5.72%.
Under `Cc1ccc2cc(C#N)c(N3CCCN(C(=O)c4cnccn4)CC3)nc2c1` stands inactive: 2.14%; under `O=C(O)CCCNS(=O)(=O)c1ccc2c(c1)OCCCO2`, inactive: 10.5%; under `C/C(CC(C)C)=N\Nc1ccc(S(N)(=O)=O)cc1[N+](=O)[O-]`, inactive: 14.1%.
For the molecule `COc1ccc(-c2nc3c(c(=O)c4ccccc4n3C)c(=O)n2Cc2ccccc2)cc1`, the “growth rescue (activation)” value is inactive: -30.7%.
In the case of `CCOC(=O)c1ccc(-n2c(C)nc3ccccc3c2=O)cc1`, the “growth rescue (activation)” value was inactive: 18.2%.
`Cc1ccc(S(=O)(=O)N2CCOCC2)cc1C(=O)OCC(=O)NC1CCS(=O)(=O)C1` (stereo not given): the “growth rescue (activation)” value was inactive: -3.19%.
The figure for `C=CCOC(=O)C1=C(C)N=C2SCCC(=O)N2C1/C=C/c1ccccc1OC` (stereo not given) is inactive: 8.45%; for `C=CCNC(=S)NNC(=O)c1ccc(=O)n(Cc2ccccc2)c1` it is inactive: 2.21%.
The figure for `Cc1ccc(NS(=O)(=O)c2cccs2)cc1S(=O)(=O)N1CCCCCC1` is inactive: 5.22%.
Under `O=C(Nc1ccccc1-c1ccccc1)NC1CC2CCCC(C1)N2Cc1ccc(F)cc1` (stereo not given) stands inactive: 6.45%.
Take `Nc1cc(=O)[nH]c(SCC(=O)Nc2ccc(Oc3ccccc3)cc2)n1`: the “growth rescue (activation)” value was inactive: -10.8%.
Under `Cc1ccc(NC(=O)C(C)Sc2nnc(C)n2CC2CCCO2)cc1` (stereo not given) stands inactive: -8.56%; under `COc1ccc(S(=O)(=O)NC(=O)C2(C)CCN2C(=O)CCC2CCCC2)cc1OC` (stereo not given), inactive: -12.7%.
The figure for `N#Cc1ccc(C(=O)N(Cc2ccccc2)c2ccccc2)cc1` is inactive: 26.4%.
Under `Cc1ccc(C(=O)CSc2nc(-c3ccccc3)ccc2C#N)cc1` stands inactive: 5.16%; under `CC(C)(C)C(=O)CN1C(=O)NC(c2ccccc2)(c2ccccc2)C1=O`, inactive: -5.15%; under `COc1cc(-c2nn3c(C4CCCCC4)nnc3s2)cc(OC)c1OC`, inactive: -3.19%.
With `CC(=O)c1ccc(NC(=O)CN2CCC(C(=O)c3ccc4c(c3)OCCO4)CC2)cc1`, the “growth rescue (activation)” value is inactive: 16.9%.
The figure for `O=C(Nc1cccc(Br)c1)C1CC(=O)N(C2CCCC2)C1` (stereo not given) is inactive: 6.09%; for `CC(NC(=O)C(C)N1c2cccc3cccc(c23)S1(=O)=O)c1ccccc1` (stereo not given) it is inactive: -12.6%; for `Cc1ccccc1N1CCN(C2CCCN(C(=O)c3ccc(Cl)s3)C2)CC1` (stereo not given) it is inactive: 17.7%.
For the molecule `Cc1ccc(-c2n[nH]c(=S)c3ccccc23)cc1`, the “growth rescue (activation)” value is inactive: 4.21%.
Under `CN(c1ccccc1)S(=O)(=O)c1ccc(Cl)c(C(=O)NCc2ccco2)c1` stands inactive: 1.21%; under `Cc1ccc(N2CC(C(=O)N3CCC(C(=O)Nc4nnc(C(C)C)s4)CC3)CC2=O)cc1` (stereo not given), inactive: 14.4%; under `CCOc1ccc(N2C(=O)CC(N(CCc3ccc(OC)cc3)C(=O)c3cccc(F)c3)C2=O)cc1` (stereo not given), inactive: 15.3%.
Under `COc1ccc(NC(=O)C2(C)CCCN(C(C)=O)C2)cc1F` (stereo not given) stands inactive: -14.1%; under `COc1cccc(N=c2oc3cc(O)ccc3cc2C(=O)NCC2CCCO2)c1` (stereo not given), inactive: 13.2%; under `COc1ccc(N(C(C)=O)c2nc(C)cc(C)c2C#N)c(OC)c1`, inactive: -15.4%.
Under `CCC(C)NC(=O)C1CCC(=O)N1Cc1ccc(C)cc1` (stereo not given) stands inactive: 9.82%.
`CCCCOc1ccccc1/C=N/NC(=O)CC#N`: the “growth rescue (activation)” value is inactive: -2.41%.
Under `CCC(CO)NC(=O)c1cccc(S(=O)(=O)N2c3ccccc3CC2C)c1` (stereo not given) stands inactive: -15.7%; under `O=C(OCc1nnc(-c2ccc([N+](=O)[O-])cc2)o1)C1CCN(C(=O)c2ccc(Cl)cc2)CC1`, inactive: 15.7%.
The figure for `COc1ccc(CNC(=O)N2CCN(S(=O)(=O)c3ccccc3)CC2)cc1` is inactive: -20.6%; for `O=C(N/N=C/c1cc(Br)cc(Br)c1O)c1cccc(N2CCCC2=O)c1` it is inactive: 4.95%.
Under `Cn1cccc1CNC(=S)Nc1cc(F)cc(F)c1` stands inactive: -3.75%; under `N=C1CCCN1CC(=O)c1ccc(Cl)cc1`, inactive: 13.6%; under `Cc1csc(SCC(=O)Nc2ccc(Cl)cn2)n1`, inactive: 3.88%.
Turning to `CCOC(=O)C1CCCN(C(=O)c2cc(-c3cccs3)oc2C)CC1` (stereo not given), the “growth rescue (activation)” value was inactive: 34.1%.
Under `O=C(CCl)Oc1ccc2occ(C(=O)c3cccs3)c2c1` stands inactive: -8.88%; under `O=C(O)CSc1c2c(nc3cc(C(=O)NCCN4CCOCC4)ccc13)CCC2`, inactive: 15.3%; under `COc1ccc(CC(=O)N2CCc3cc(OC)c(OC)cc3C2)cc1`, inactive: 4.77%.
Take `Cc1ncc(CO)c(/C=N/NC(=O)c2ccc(O)cc2)c1O`: the “growth rescue (activation)” value was inactive: 12.5%.
The figure for `CCc1nc2ccc(C(=O)NCCN3CCOCC3)cn2c1N(CC)CCOC` is inactive: 0.866%.
On to `Cc1cc(C)n(CCCNCC(O)c2ccccc2)n1` (stereo not given), for which the “growth rescue (activation)” value is inactive: 7.2%.
With `Cc1cccc(NC(=S)N(Cc2cccs2)Cc2cc3cc(C)ccc3[nH]c2=O)c1`, the “growth rescue (activation)” value is inactive: 16.3%.
Under `O=C(CC1(O)C(=O)c2ccccc2C1=O)c1ccccc1` stands inactive: 1.4%; under `CC1(C)CC2CC(C)(CN2C(=O)c2ccc([N+](=O)[O-])cc2)C1` (stereo not given), inactive: 2.92%; under `COc1ccccc1C1/C(=C(/O)c2ccccc2)C(=O)C(=O)N1CCO` (stereo not given), inactive: -21.1%.
For `Cc1ccc(C(=O)NCC2CCCO2)cc1S(=O)(=O)N1CCCCC1` (stereo not given), the “growth rescue (activation)” value was inactive: 4.04%.
Turning to `Cn1nc(C(C)(C)C)cc1C(=O)N1CCCCC1c1cc(C(=O)Nc2cccc3c2CCCC3)no1` (stereo not given), the “growth rescue (activation)” value was inactive: -4.42%.
Under `CCc1ccc(C(=O)CN2C(=O)NC(C)(c3ccc(C)cc3)C2=O)cc1` (stereo not given) stands inactive: 0.27%.
The figure for `Cc1cc(-c2ccccc2)n(-c2ccc(C(N)=O)cc2)n1` is inactive: -4.38%; for `O=S(=O)(NCC1CCCO1)c1ccc(S(=O)(=O)N(Cc2ccccn2)C2CC2)cc1` (stereo not given) it is inactive: 14.3%; for `CC1(C)CC(=O)c2sc(NS(=O)(=O)c3ccc(Cl)cc3)nc2C1` it is inactive: 11.5%.
Turning to `CC(C)c1ccc(N(C(=O)c2csnn2)C(C(=O)NC2CCCC2)c2cccnc2)cc1` (stereo not given), the “growth rescue (activation)” value was inactive: 21.7%.
Take `O=C1NC2(CCCCCC2)C(=O)N1Cc1cccc([N+](=O)[O-])c1`: the “growth rescue (activation)” value was inactive: 5.14%.
The figure for `O=C(COC(=O)c1n[nH]c(=O)c2ccccc12)Nc1ccccc1` is inactive: -7.31%; for `CC1CCN(S(=O)(=O)c2ccc(C(C)C)cc2)CC1` it is inactive: -44.3%; for `O=C(N/N=C/c1cccnc1)c1cccc(NC(=O)c2ccccc2Cl)c1` it is inactive: 2.94%.
For the molecule `Cc1ccc(S(=O)(=O)Oc2ccc(/C=N/N=C3/NC(=O)C(CC(=O)O)S3)cc2)cc1` (stereo not given), the “growth rescue (activation)” value was inactive: 3.37%.
The figure for `Cc1cc(C)cc(C(O)c2ncc(-c3ccc(C(F)(F)F)cc3)[nH]2)c1` (stereo not given) is inactive: 5.85%; for `Cc1ccc(C(=O)OCC(=O)N2CCC(c3ccccc3)=N2)cc1` it is inactive: 19.8%.
The figure for `CN(c1ccccc1)S(=O)(=O)c1cccc(C(=O)OCC(=O)NCc2ccc3c(c2)OCO3)c1` is inactive: -12.3%; for `CCCCNC(=O)C1c2cc(OC)c(OC)cc2C(=O)N(C)C1c1cccs1` (stereo not given) it is inactive: 4.62%; for `CCOc1ccc(C(=O)C[n+]2ccc(C(=O)NCCO)cc2)cc1` it is inactive: -20.9%.
For the molecule `COc1cc(/C=N\NC(=O)c2ccc(C)nc2)ccc1OC(=O)c1cccc(F)c1`, the “growth rescue (activation)” value is inactive: 9.32%.
The figure for `O=C(CN1C(=O)NC2(CCCC2)C1=O)Nc1ccc(Cl)c(C(F)(F)F)c1` is inactive: -3.07%; for `Cc1ccc(C(=O)c2c[nH]c3c(F)cc(F)cc3c2=O)cc1` it is inactive: 1.28%.
In the case of `CSCCC(NS(=O)(=O)c1ccc2c(c1)oc(=O)n2C)C(=O)NCc1cccs1` (stereo not given), the “growth rescue (activation)” value is inactive: 29.3%.
Under `O=C(Nc1ccc2c3c(cccc13)CC2)c1ccco1` stands inactive: -17.1%; under `C/C(=N\NC(=O)C(N)=O)c1ccc(OC(F)F)cc1`, inactive: -1.74%.
Under `CCCNC(=S)NNC(=O)c1cccs1` stands inactive: -10.6%; under `CC/C(=N/OC(=O)c1cccc(C)c1)C(=O)c1cccs1`, inactive: 32.2%; under `Cc1nc(C)c(C(=O)NNC(=O)c2ccc(Br)cc2)s1`, inactive: 9.08%.
The figure for `Cc1ccc(S(=O)(=O)N(C)C)cc1NC(=O)CCNC(=O)c1ccccc1Cl` is inactive: 5.52%; for `Cc1cccc(Nc2cc(C)nc3ccccc23)c1` it is inactive: 5.81%.
With `O=C(NC(c1ccc2ccccc2n1)c1cccs1)C1CCN(Cc2cccc(C(F)(F)F)c2)CC1` (stereo not given), the “growth rescue (activation)” value is inactive: 23.3%.
Under `COc1cccc(NC(=O)c2ccc3nsnc3c2)c1` stands inactive: 36.6%.
The figure for `COc1cc(NC(=O)COC(=O)CCc2nc3ccccc3c(=O)[nH]2)cc(OC)c1` is inactive: 5.99%; for `O=C(Cc1ccc(Cl)cc1)NCC(=O)N1CCCC1` it is inactive: -27.9%.
For `CCCCC(Br)C(=O)Nc1ccc(S(=O)(=O)Nc2cc(C)nc(C)n2)cc1` (stereo not given), the “growth rescue (activation)” value is inactive: 4.99%.
The figure for `CC(CC1CC(C)(C)OC1=O)C(=O)Nc1ccc([N+](=O)[O-])cc1` (stereo not given) is inactive: -0.0885%; for `CCn1c(=O)c(C(=O)NNC(=O)c2ccccc2)c(O)c2ccccc21` it is inactive: -49.2%.
The figure for `COc1ccc(NC(=O)c2cn(C)c(=O)c3cc(OC)c(OC)cc23)cc1OC` is inactive: 7.93%.
As to `O=C(NCCc1c[nH]c2ccccc12)c1cc(Cl)c2c(c1)OCO2`, the “growth rescue (activation)” value is inactive: 28.1%.
Under `CCOc1ccc(S(=O)(=O)NC2CCCCCC2)cc1` stands inactive: 13.1%.
The figure for `COc1ccc(-n2nc(C(=O)NCC(=O)N(C)Cc3ccccc3)c3ccccc3c2=O)c(OC)c1` is inactive: 5.14%; for `O=C(Cc1c[nH]c2ccccc12)Nc1nnc(C2CC2)s1` it is inactive: -10.8%.
The figure for `COc1ccc(/C=C2\SC(=S)N(CC(=O)OCC(=O)Nc3ccc(C)cc3Cl)C2=O)cc1` is inactive: 0.903%.
Take `CC(C(=O)Nc1ccc(S(=O)(=O)N2CCOCC2)cc1)N(c1ccccc1)S(C)(=O)=O` (stereo not given): the “growth rescue (activation)” value was inactive: 4.83%.
Under `O=C(COC(=O)/C=C/c1cccc(Br)c1)NC1CCCC1` stands inactive: 0.844%; under `Cn1nccc1-c1ccc(C(=O)Nc2cccc(NS(C)(=O)=O)c2)c2occc12`, inactive: -13.6%; under `CCn1c(O)c(C2=c3ccccc3=NC2=O)c2cc(Br)ccc21`, inactive: 10.1%.
